Measured values: PubChem BioAssay AID1240 (Sanford-Burnham Center for Chemical Genomics, 2008)
About 800 (1.6%) of roughly 50,000 compounds showed an effect of 50% or more. The list shows a part of the results.

biological target: Bcl-2-like protein 10 (Homo sapiens) (UniProt Q9HD36); test: TR3 peptide-Bcl-B binding displacers, biochemical primary FP assay, phenotype converters (AID 1240); conditions: GST-Bcl-B / FITC-TR3 peptide fluorescence polarization; stronger effect = higher value; compound at 3.75 mg/L;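 further: 0% = Bcl-B with tracer peptide and DMSO and 100% = tracer peptide lacking Bcl-B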
Sequence of UniProt Q9HD36 (Q9HD36 whole entry, looked up): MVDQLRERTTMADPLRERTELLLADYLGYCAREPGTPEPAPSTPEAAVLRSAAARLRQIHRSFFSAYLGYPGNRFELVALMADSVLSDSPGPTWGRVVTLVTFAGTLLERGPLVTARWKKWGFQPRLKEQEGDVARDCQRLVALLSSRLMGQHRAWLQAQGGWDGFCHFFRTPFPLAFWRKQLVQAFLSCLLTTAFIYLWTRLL

Row | SMILES | displacement
1 | Fc1c(F)c(C(F)(F)F)c(F)c(F)c1Oc1cccc2cccnc12 | 29.7%
2 | COc1ccc(Br)cc1CN1CCN(C(=O)c2ccc(-c3ccccc3)cc2)CC1 | 10.6%
3 | CCOC(=O)c1ccc(-n2c(C)cc(/C=C3\NC(=O)NC3=O)c2C)cc1 | 10%
4 | CC(C)C(=O)Nc1ncc2c(n1)CC(c1ccccc1)CC2=O (centres undefined) | -4.4%
5 | CC(=O)Nc1ccc(N=Cc2ccncc2)cc1 | 6.2%
6 | CCC(Oc1ccccc1)C(=O)NCc1ccccc1 (centres undefined) | -6.5%
7 | CCc1ccc(OCCNC(=O)CN(c2ccc(C)cc2)S(C)(=O)=O)cc1 | -5.8%
8 | Brc1ccc(-c2cs/c(=N/c3ccccn3)n2-c2ccccc2)cc1 | 7.9%
9 | COc1ccc(-c2c(Cc3ccccc3)[nH]n3c(=O)c4c(nc23)CCC4)cc1 | -3.3%
10 | Cn1cnnc1SCC(=O)n1c2ccccc2c2ccccc21 | -3%
11 | Cc1cc(NC(=O)c2ccccc2Br)no1 | 2.2%
12 | O=[N+]([O-])c1ccc2c(c1)C=C1CCCCC1(NCc1ccccc1)O2 (centres undefined) | 2%
13 | Cc1sc(NC(=O)C2CC2c2ccccc2)c(C#N)c1C (centres undefined) | -0.9%
14 | N/N=C1/NC(=O)C(Cc2cccc([N+](=O)[O-])c2)S1 (centres undefined) | 5.5%
15 | CC12CC3CC(O)(C1)CC(C(=O)O)(C3)C2 (centres undefined) | 3.2%
16 | CC(=O)Nc1cccc(NS(=O)(=O)c2ccc([N+](=O)[O-])cc2)c1 | 5.6%
17 | S=C(c1cn(-c2ccccc2)nc1-c1cccs1)N1CCOCC1 | 12.2%
18 | CC(C)N1CCc2c(sc3nc(SCc4ccc(Cl)cc4)n(-c4ccccc4)c(=O)c23)C1 | -11.9%
19 | CC(=O)OC(OC(C)=O)C12C=CC(O1)C1C(=O)N(c3cccc([N+](=O)[O-])c3)C(=O)C12 (centres undefined) | -19.6%
20 | CC1=C(C(=O)OCCOc2ccccc2)C(c2ccccc2F)C2=C(CCCC2=O)N1 (centres undefined) | -1.3%
21 | CS(=O)(=O)N1CCN(c2ccc([N+](=O)[O-])c(N3CCOCC3)c2)CC1 | -6%
22 | CCCN(CCC)C(=O)c1ccccc1NC(=O)c1cccnc1 | -0.2%
23 | CN1CCC(O)(c2ccccc2)C(C)(C)C1 (centres undefined) | -9.2%
24 | CCOC(=O)C1=C(C)NC(=S)NC1c1ccc(Cl)c(Cl)c1 (centres undefined) | -2.8%
25 | COc1ccc(N2CC(C(=O)N/N=C/c3ccc([N+](=O)[O-])cc3)CC2=O)cc1 (centres undefined) | 1.6%
26 | COC(=O)c1ccc(N(Cc2ccc(Cl)cc2)S(C)(=O)=O)cc1 | 7.6%
27 | CCCCC(O)(CCCC)c1ccccc1O | -2.8%

Row | SMILES | displacement
28 | CC(C)C(=O)Nc1ccc(Cl)c(-c2nc3ccccc3[nH]2)c1 | -12%
29 | CC(Oc1ccc(Cl)cc1Cl)C(=O)N1CCN(Cc2ccccc2)CC1 (centres undefined) | -1.6%
30 | O=C(c1nn2c(C(F)(F)F)cc(-c3ccccc3)nc2c1Cl)N1CCCCC1 | -8.7%
31 | COC(=O)C1=C(C)NC(=O)NC1c1ccccc1F (centres undefined) | 2.7%
32 | CC1=C(C(=O)Nc2ccc(C)cc2)C(c2ccc(Cl)cc2)NC(=S)N1 (centres undefined) | -2.8%
33 | Cc1ccc(-c2n[nH]c3nc(C)cc(=O)n23)cc1 | -4.9%
34 | O=c1c2c(nc3cc(-c4ccc(Cl)cc4)[nH]n13)CCS2 | 115%
35 | CC(C)NC(=O)c1ccc(Cl)c(Cl)c1 | 14%
36 | C=CCc1ccccc1OCCOc1c(Br)cc(/C=c2\sc3nc4ccccc4n3c2=O)cc1OC | 12.4%
37 | CCn1c(/N=C/c2ccc(OC)c3cccc(OC)c23)nc2ccccc21 | -3%
38 | CSc1nnc2c(n1)OC(c1ccc(-c3ccc([N+](=O)[O-])cc3)o1)Nc1ccccc1-2 (centres undefined) | 6.8%
39 | COc1cc(NC(=O)c2ccc(Br)cc2)cc(OC)c1 | 3.8%
40 | CCOc1nc(N=C(N)N)nc2c(C)cccc12 | -14.4%
41 | Cc1ccc(-c2csc(N)c2C(=O)OC(C)C)cc1C | -5.6%
42 | O=C(c1cccc(F)c1)N1CCN(C2CCC(c3ccccc3)CC2)CC1 (centres undefined) | -9.2%
43 | O=C(c1cc2ccccc2oc1=O)N1CCCC1 | -2.5%
44 | NS(=O)(=O)c1cccc(NC(=O)c2ccc(Cl)cc2Cl)c1 | 13.4%
45 | CNC(=O)C(C)NC(=O)C12CC3CC(CC(C3)C1)C2 (centres undefined) | 6.6%
46 | O=C(Nc1ccc(Br)c(Cl)c1)c1cccc([N+](=O)[O-])c1 | 6.3%
47 | O=C(/C=C/c1ccccc1)NC(=S)Nc1ccc([N+](=O)[O-])cc1Cl | 2.7%
48 | CC(C)c1ccc(N2C(=O)c3ccccc3NC2c2ccc3c(c2)OCO3)cc1 (centres undefined) | 1.8%
49 | Cc1ccc[n+](CC(=O)c2ccc(Cl)cc2)c1C | 5.6%
50 | COc1ccc(OCC(=O)Nc2cccc(-c3nc4ccccc4s3)c2)cc1 | 5%
51 | Cc1c(NC(=O)NC(=O)c2ccc(F)cc2)c(=O)n(-c2ccccc2)n1C | 2.5%
52 | O=C1CC(c2ccc(Cl)cc2)CC2=C1C(c1cc3c(cc1[N+](=O)[O-])OCO3)Nc1ccccc1N2 (centres undefined) | -1.1%
53 | COC(=O)C1=NN(C(=O)c2cccc(OC)c2)C(O)(c2ccc(Cl)cc2)C1 (centres undefined) | -15.2%
54 | O=C(Nc1cc([N+](=O)[O-])ccc1O)c1ccc(C(=O)Nc2cc([N+](=O)[O-])ccc2O)cc1 | 4.4%
